The values that follow come from patent US12338199B2, “Bis-octahydrophenanthrene carboxamides and protein conjugates thereof” (REGENERON PHARMACEUTICALS, INC., priority 2017, dated 2025).

This experiment deals with T1, His9-hMSR1 (human MSR1 extracellular domain) (Homo sapiens, UniProt P21757).
T1 construct: human MSR1 extracellular domain expressed with a N-terminal nonahistidine tag; purchased R&D Systems 2708-MS
T1 sequence (P21757 77-451 limits assumed): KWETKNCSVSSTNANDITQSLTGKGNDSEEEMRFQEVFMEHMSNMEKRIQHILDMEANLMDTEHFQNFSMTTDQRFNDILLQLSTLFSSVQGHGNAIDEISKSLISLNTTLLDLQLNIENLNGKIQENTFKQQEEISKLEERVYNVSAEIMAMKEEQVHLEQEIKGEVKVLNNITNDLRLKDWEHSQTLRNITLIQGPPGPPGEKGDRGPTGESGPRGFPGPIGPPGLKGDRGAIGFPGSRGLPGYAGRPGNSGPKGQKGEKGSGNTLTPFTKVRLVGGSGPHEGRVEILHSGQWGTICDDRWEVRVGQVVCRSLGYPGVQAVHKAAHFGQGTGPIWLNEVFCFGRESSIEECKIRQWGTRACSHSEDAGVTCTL
As to the kind of experiment: Biacore surface plasmon resonance binding kinetics. To be noted: 25° C. The procedure:
The MSR1 antibodies disclosed herein were conjugated to various liver X receptor (LXR) payloads. This example describes how equilibrium dissociation constant (KD) values for human MSR1 reagents binding to human anti-MSR1 antibody-drug conjugates and their corresponding unconjugated parental antibodies were determined using a real-time surface plasmon resonance-based Biacore T200 biosensor.
All binding studies were performed in 10 mM HEPES, 300 mM NaCl, 3 mM EDTA, and 0.05% v/v Surfactant Tween-20, pH 7.4 (HBS-ET) running buffer at 25° C. The Biacore CM4 sensor chip surface was first derivatized by amine coupling with the goat anti-human Fcγ specific polyclonal antibody (Jackson ImmunoResearch Laboratories, Cat # BR-1008-39) to capture anti-MSR1 monoclonal antibodies. Binding studies were performed on human MSR1 extracellular domain expressed with a N-terminal nonahistidine tag (His9-hMSR1; R&D Systems, Cat #2708-MS).
The association rate (ka) and dissociation rate (kd) were determined by fitting the real-time binding sensorgrams to a 1:1 binding model with mass transport limitation using Scrubber 2.0c curve-fitting software. Binding dissociation equilibrium constant (KD) and dissociative half-life (t½) were calculated from the kinetic rates as: […]
A general note: In SPR one partner is held on a chip, and binding of the other changes the refractive index at the surface.

B1: H1H27751P-N297Q (antibody, V domains shown)
VH: EVQLVESGGGLVQPGGSLRLSCAASGFTFSNYAMHWVRQAPGKGLEYVSAISSNGGSTYYADSVKGRITISRDNSKNTLYLQMGSLRAEDMAVYYCARGRPYYYYFGMDVWGQGTTVTVSS
VL: [about 100 residues not shown]QFPLNFGGGTKVEIKR
Consider B1, for which, where the note is “* = no dissociation observed, kd fixed at 1.00E−05”, the “kd” value was 0.000175 s⁻¹. Further, the Kd – broadly, the free concentration of one partner at which half of the binding sites on the other are occupied at equilibrium, for simple one-to-one binding – (calculated from the kinetic rates, read-out: KD (Molar)) is 833 pM. In addition, the “ka” value (His9-hMSR1 binding to captured antibody) came out at 210000 M⁻¹ s⁻¹.
